Laboratory results reported in PubChem BioAssay (NCI).
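Compound exposure: 48 hours, 5 concentrations, 96-well plates. GI50 is the concentration that inhibits growth by half. TGI denotes the concentration required for complete inhibition of growth.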

Test system: NCI-H322M lung
Experiment: NCI-60 cell line screen, 48 h

| SMILES | GI50 | TGI |
| --- | --- | --- |
| COc1csc(/C=N/NC(=O)c2[nH]c3ccc(Br)cc3c2-c2ccccc2)c1 | 0.145 µM | > 100 µM |
| CCOC(=O)c1sc(N/N=C(\C)c2ccc3c(c2)Nc2ccccc2S3)nc1C | 10.4 µM | 31.2 µM |
